Laboratory results as given in PubChem BioAssay AID1240 (Sanford-Burnham Center for Chemical Genomics, 2008).
Screen size: about 50,000 compounds; about 800 (1.6%) showed an effect of 50% or more. This is one part of the list.

biological target: Bcl-2-like protein 10 (Homo sapiens) (UniProt Q9HD36); test: TR3 peptide-Bcl-B binding displacers, biochemical primary FP assay, phenotype converters (AID 1240); conditions: GST-Bcl-B / FITC-TR3 peptide fluorescence polarization; stronger effect = higher value; compound at 3.75 mg/L;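 note: 0% = Bcl-B with tracer peptide and DMSO and 100% = tracer peptide lacking Bcl-B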
Sequence of UniProt Q9HD36 (Q9HD36 whole entry, looked up): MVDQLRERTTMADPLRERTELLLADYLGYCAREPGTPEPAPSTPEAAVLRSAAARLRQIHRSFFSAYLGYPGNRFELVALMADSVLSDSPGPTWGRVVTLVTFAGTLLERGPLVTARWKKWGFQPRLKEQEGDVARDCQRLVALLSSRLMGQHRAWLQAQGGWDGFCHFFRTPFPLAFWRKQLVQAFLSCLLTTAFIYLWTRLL

Compared with `CCCOc1cccc(C(=O)Nc2ccc(F)cc2)c1`, `O=C(Nc1ccc(Nc2ccccc2)cc1)c1cccc(I)c1` is higher in displacement: -1.9% for the first, 12.6% for the second.

First: Nc1nc(-c2ccc(F)c(F)c2)cs1
Second: O=C(c1ccc(F)cc1F)n1nnc2ccccc21
The displacement of the first is lower: -8.4% for the first, -1.7% for the second.

First: Cc1ccc2nc(-c3ccc(NC(=O)c4cccc(Cl)c4Cl)cc3)sc2c1
Second: O=C(Nc1ccccc1C(=O)Nc1ccc(Cl)cc1)c1ccccn1
The displacement of the first is higher: -0.5% for the first, -6.5% for the second.

Going from `COc1c(Cl)cc(C(=O)Nc2ccc(Cl)c(-c3nc4ccccc4o3)c2)cc1Cl` to `Cc1cc2nc(-c3cc(NC(=O)COc4ccccc4)ccc3O)oc2cc1C`, the displacement falls from 2.3% to -24.7%.

First: CSc1nc2c(cc1C#N)CCCC2
Second: O=C(c1cccc(F)c1)N1CCCCCC1
The displacement of the first is lower: -7.3% for the first, -5.3% for the second.

Going from `Cc1ccc(CNC(=O)C(=O)Nc2cccc(C(F)(F)F)c2)cc1` to `O=C(NCc1ccc(F)cc1)C(=O)Nc1ccccc1F`, the displacement rises from 5.4% to 11.3%.

First: Clc1ccc(-c2ccc(/C=N/Nc3nc4ccccc4s3)o2)cc1
Second: O=C1OC(c2ccc(Cl)cc2)=N/C1=C\c1ccccc1[N+](=O)[O-]
The displacement of the first is lower: 1.8% for the first, 6.7% for the second.

Going from `COc1ccc([N+](=O)[O-])cc1NC(=O)c1ccc(N(C)C)cc1` to `C/C(=N/NC(=O)CNc1ccc(C)cc1)c1ccc([N+](=O)[O-])cc1`, the displacement rises from 3% to 6.5%.

Compared with `O=C(/C=C/c1ccco1)Nc1cc(Cl)ccc1C(=O)O`, `O=C(Nc1ccccc1C(=O)O)c1ccc(NC(=O)c2cccs2)cc1` is lower in displacement: 11.6% for the first, 0.7% for the second.

First: O=c1c([N+](=O)[O-])c(NC2CCCCC2)c2ccccc2n1-c1ccccc1
Second: O=C(CSc1nc2ccccc2c(=O)n1CC1CCCCC1)c1ccc(Cl)cc1
The displacement of the first is higher: 13.4% for the first, -10.4% for the second.

Compared with `C=CCNC(=O)COc1ccc2ccccc2c1`, `Cc1ccc(-c2ccc(OCC(=O)NC(C)c3ccccc3)cc2)cc1` (centres undefined) is lower in displacement: 7% for the first, -2.5% for the second.

First: O=C1Nc2ccccc2C1=Cc1nc2ccccc2c(=O)n1-c1cccc([N+](=O)[O-])c1
Second: Cc1cccc(-n2c(C)cc(C=C3C(=O)c4ccccc4C3=O)c2C)c1
The displacement of the first is lower: 3.3% for the first, 138% for the second.

Compared with `CCCC(=O)Nc1ccc(Br)cn1`, `COc1ccc(Br)cc1C(=O)Nc1cc(Cl)cc(Cl)c1` is higher in displacement: -4.2% for the first, 15.4% for the second.

First: O=C1c2ccc3c4c(ccc(c24)C(=O)N1c1ccccc1O)C(=O)N(c1ccccc1O)C3=O
Second: CC(=O)Oc1ccc(C(=O)Nc2ccc3c(c2)C(=O)N(c2ccccc2)C3=O)cc1
The displacement of the first is higher: 6.8% for the first, 5.3% for the second.

Going from `CC1CCC(N2CCN(C3CCN(Cc4ccccc4)CC3)CC2)CC1` (centres undefined) to `O=c1ccn(Cc2ccccc2)c(=O)[nH]1`, the displacement rises from -0.4% to 5.9%.

First: CCOC(=O)N1CCN(c2cc(C)c(C(C)=O)cc2F)CC1
Second: CCOC(=O)C1CCN(C(=O)c2ccccc2Br)CC1
The displacement of the first is lower: -5% for the first, -3.4% for the second.

Going from `COc1ccc(S(=O)(=O)N(CC(=O)NCc2ccco2)Cc2ccccc2)cc1OC` to `O=C(O)c1cccc(S(=O)(=O)NCc2ccccc2)c1`, the displacement falls from 13.4% to 1.4%.

Compared with `CC1CCC2(CC1)NC(=S)c1c(sc3c1CCC(C)C3)N2` (centres undefined), `Cc1ccc(C(=O)O)cc1S(=O)(=O)N1CCC(C)CC1` is higher in displacement: -14.8% for the first, 2.4% for the second.

Compared with `O=C1NC(=S)NC(=O)C1=Cc1ccc(Oc2ccc([N+](=O)[O-])cn2)cc1`, `Cc1no[n+]([O-])c1COc1ccc(/C=C2\N=C(c3ccccc3)OC2=O)cc1` is lower in displacement: 10.5% for the first, -9.9% for the second.

Compared with `Cc1ccccc1CC1S/C(=N\N=C\c2ccco2)NC1=O` (centres undefined), `COc1ccccc1N1C(=O)/C(=C/c2cccc(Cl)c2)SC1=S` is lower in displacement: 21.2% for the first, 11.4% for the second.

Going from `CCCc1ccc(-c2nc(Cc3c(F)cccc3Cl)no2)cc1` to `CCc1ccc(/C=C(/C#N)c2nc3ccc(C)cc3[nH]2)cc1`, the displacement falls from 12.4% to 3.2%.

Going from `CCc1c(C)sc(NC(=O)c2sc3ccccc3c2Cl)c1C#N` to `COC(=O)c1sc(NC(=O)c2cc([N+](=O)[O-])ccc2Cl)c(C(=O)OC)c1C`, the displacement falls from 44.7% to 14.5%.

Compared with `CCOC(=O)C1=C(O)CSC1=Nc1ccc([N+](=O)[O-])cc1`, `O=C(C=C(Cl)Cl)c1ccc([N+](=O)[O-])cc1` is lower in displacement: 112% for the first, 7.4% for the second.

Going from `CC1=C(C(=O)OCCc2ccccc2)C(c2ccc(Cl)c([N+](=O)[O-])c2)C2=C(CCCC2=O)N1` (centres undefined) to `COc1ccc(C2C(C(=O)OCC(C)C)=C(C)NC3=C2C(=O)CC(c2ccccc2)C3)c(OC)c1` (centres undefined), the displacement falls from 4.5% to 3.6%.

Compared with `N#C/C(=C/c1ccc(I)o1)c1nc2ccccc2[nH]1`, `COc1cc(/C=C(/C#N)c2nc3ccc(C)cc3[nH]2)c(Br)cc1O` is lower in displacement: 6.1% for the first, -53.5% for the second.

Compared with `C#CC(C)(C)NC(=O)CN(c1cc(Cl)ccc1OC)S(=O)(=O)c1ccc(C)c([N+](=O)[O-])c1`, `Cc1ccc(S(=O)(=O)Nc2ccccc2Br)cc1[N+](=O)[O-]` is higher in displacement: 10.3% for the first, 10.8% for the second.

Going from `O=C1c2ccccc2C(=O)N1CC#CCN1CCN(C(c2ccccc2)c2ccccc2)CC1` to `Cc1ccccc1NC1(c2ccccc2Cl)C(=O)c2ccccc2C1=O`, the displacement rises from -11.8% to 14.3%.

First: CCC1(C)NC(=S)N2N1C(=S)NC2(C)CC (centres undefined)
Second: CCOc1ccc2c(c1)nc(C)n2CC
The displacement of the first is higher: 0.6% for the first, -0.6% for the second.

First: COC(=O)Cn1c(=N)n(Cc2ccc(C)cc2)c2ccccc21
Second: COc1cc(C=O)ccc1OCCSc1ccc(C)cc1
The displacement of the first is lower: -3% for the first, 6.6% for the second.

Compared with `COc1cc(/C=N/n2cnnc2)cc(I)c1OCCOc1ccc(C(C)(C)C)cc1`, `COc1cccc(OCCOc2ccc(/C=C3/SC(=S)N(Cc4ccccc4)C3=O)cc2)c1` is higher in displacement: -23.8% for the first, -5.4% for the second.

First: O=C(CSc1ccc(C(=O)O)cc1)Nc1ccccc1
Second: Cc1cccc(NC(=O)/C(=C\c2cccs2)NC(=O)c2ccccc2)c1
The displacement of the first is higher: 5.2% for the first, 2.4% for the second.

Going from `CCOC(=O)c1c(NC(=O)Cc2cccs2)sc(C(=O)N2CCOCC2)c1C` to `CCOC(=O)c1c(NC(=O)c2ccco2)sc(C(=O)N(CC)CC)c1C`, the displacement rises from -10.4% to -3.6%.

Going from `CCCC1=NN(c2nc3ccccc3s2)C(=O)/C1=C(\C)N1CCOCC1` to `O=C1C(=O)N(CN2CCOCC2)c2ccc(Br)cc21`, the displacement rises from -15.1% to 10.5%.

Compared with `COc1ccc(N/C(N)=N/c2nc(C(F)(F)F)cc(=O)[nH]2)cc1`, `CCc1ccc(NC(=O)C(F)(F)F)cc1` is higher in displacement: -3.5% for the first, 7.7% for the second.

First: COc1cc(OC)c(C2NC(=S)NC(C)=C2C(=O)Nc2ccc(Br)cc2)cc1OC (centres undefined)
Second: COc1ccc(C(=O)NNC(=O)Nc2ccc(Cl)cc2)cc1
The displacement of the first is higher: 2.8% for the first, -4.8% for the second.

Compared with `CCCOC(=O)c1ccc(NS(=O)(=O)c2ccc(Cl)cc2)cc1`, `CCOC(=O)c1ccc(NC(=O)CN(c2ccc(OCC)cc2)S(=O)(=O)c2ccc(Br)cc2)cc1` is higher in displacement: -9.7% for the first, -0.3% for the second.

Going from `CCc1ccccc1NC(=O)C(CC)c1ccccc1` (centres undefined) to `c1ccc(OCCSc2nc3ccccc3o2)cc1`, the displacement falls from 15% to 5.7%.

First: CCOC(=O)c1sc(NC(=O)c2ccc(C)o2)nc1C
Second: CCOC(=O)c1sc(NC(=O)COc2ccc(C(C)(C)C)cc2)nc1C
The displacement of the first is lower: -14.5% for the first, -2.6% for the second.

First: NS(=O)(=O)c1ccc(CCNC(=O)c2cccc(C#CC3(O)CCCCC3)c2)cc1
Second: CCOc1ccc(S(=O)(=O)N2CCSC2c2ccc3c4c(cccc24)CC3)cc1 (centres undefined)
The displacement of the first is higher: -5.2% for the first, -11.9% for the second.

Compared with `CCOc1cc(/C=C2\SC(=S)N(Cc3ccccc3)C2=O)ccc1OCc1ccc([N+](=O)[O-])cc1`, `COC(=O)c1cc(NC(=O)c2cccc(OCc3ccccc3)c2)cc(C(=O)OC)c1` is higher in displacement: -1% for the first, 1.2% for the second.

Compared with `COC(=O)C1=C(C(=O)OC)SC(=C2C(=S)C(C)(C)N(C(=O)c3ccc([N+](=O)[O-])cc3)c3cc(OC)ccc32)S1`, `Cc1ccc2nsnc2c1NC(=O)c1cc([N+](=O)[O-])ccc1Cl` is higher in displacement: -2.3% for the first, 3.7% for the second.

First: N#Cc1c(-c2ccc(Br)cc2)cc(-c2ccco2)c(C#N)c1N
Second: O=C(O)c1cc2c(ccc3cc(Br)ccc32)oc1=O
The displacement of the first is higher: 76.9% for the first, 5.4% for the second.

Compared with `O=C(CCNc1n[nH]c(=O)[nH]c1=O)N/N=C/CCc1ccccc1`, `Nc1cc(NCCCC(=O)O)ccc1[N+](=O)[O-]` is higher in displacement: 11.6% for the first, 13.4% for the second.

Compared with `CCC(=O)Nc1nc(C23CC4CC(CC(C4)C2)C3)c(C)s1`, `NCCC12CC3CC(C1)CC(CCN)(C3)C2` is lower in displacement: -2.7% for the first, -5.4% for the second.

Compared with `O=C1NCC(O)=C1C=NCCc1ccc(O)cc1`, `NC1=NC(=O)C(Cc2ccc(Br)cc2)S1` (centres undefined) is lower in displacement: 15.9% for the first, -3.8% for the second.

Going from `O=C(N/N=C\c1cn(-c2ccccc2)nc1-c1ccccc1)c1ccc(Br)cc1` to `CC1(C)CC(=O)C2=C(C1)Nc1ccccc1N(C(=O)c1ccccc1)C2c1cccc(F)c1` (centres undefined), the displacement falls from 3.8% to 0.7%.

Compared with `CC1=C(C)C(O)N(C(C)(C)c2cc(Cl)cc(Cl)c2)C1=O` (centres undefined), `COC(=O)C1=C(C)Nc2cc(C(F)(F)F)ccc2S1` is higher in displacement: -0.6% for the first, 4.3% for the second.

Compared with `Cc1cc2nc3s/c(=C\c4ccc(-c5ccc(Cl)c([N+](=O)[O-])c5)o4)c(=O)n3c2cc1C`, `COc1ccc2nc(NC(=O)CN3C(=O)c4ccccc4C3=O)sc2c1` is higher in displacement: -8.2% for the first, 18% for the second.

Going from `Cc1c(C(=O)N2CCC(C)CC2)cccc1[N+](=O)[O-]` to `CC(C)(C)NC(=O)c1ccccc1C(=O)O`, the displacement rises from -2.2% to 0.3%.

Compared with `CCOc1cc(/C=C2\SC(N3CCN(C4=NC(=O)/C(=C\c5ccc(O)c(OCC)c5)S4)CC3)=NC2=O)ccc1O`, `O=C(Nc1ccc(F)cc1F)N1CCN(Cc2ccc3c(c2)OCO3)CC1` is lower in displacement: 0.7% for the first, -7.1% for the second.

Going from `CC1(C)CC(=O)c2c(oc3c(Br)cc(NS(=O)(=O)c4ccccc4)cc23)C1` to `CC1(C)Cc2c(sc3ncn4nc(CSc5nc6ccccc6o5)nc4c23)C(C)(C)N1`, the displacement rises from 1.4% to 12.7%.

Compared with `CCOC(=O)c1c(N(C(C)=O)C(C)=O)sc(=S)n1-c1ccccc1`, `O=c1[nH]c(=S)n(-c2ccc(Cl)cc2)c(O)c1/C=C1\C=Nc2ccccc21` is lower in displacement: -6.5% for the first, -37.5% for the second.

First: O=C1NC(=O)C(C=Nc2ccc(OC(F)F)cc2)C(=O)N1
Second: FC(F)(F)c1cccc(Nc2ncnc3ccc(Br)cc23)c1
The displacement of the first is higher: 5.3% for the first, 3.1% for the second.

Going from `O=C1CSC(c2ccc(Cl)cc2Cl)N1CCN1CCCCC1` (centres undefined) to `CCN(CC)CCOCCOc1ccc(Cl)cc1Cl`, the displacement rises from -4.4% to 1%.

Work on `C=CCNS(=O)(=O)c1ccccc1[N+](=O)[O-]` yielded a displacement of -0.1%.
